# From article PMC12040169 (PLOS Biology, 2025)
# Some of the results follow.
# System: T1, C. trachomatis L2/434/Bu expressing GFP (CTL2-GFP)
# T1 construct: L2/434/Bu GFP intracellular growth in HeLa cells
# Parameters: species or system HeLa; C. trachomatis total inclusion area by high-content imaging, normalised to DMSO
# Settings: total inclusion area; 28.5 h, 10 µM; inhibitor
# In short: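 After bulk GFP and resorufin fluorescence reads, cells were fixed, stained with Hoechst and imaged by high-content microscopy. Inclusion area and number (GFP) stood in for chlamydial growth, nuclei count (Hoechst) for host cell viability. MICs were derived as for the bulk readout.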
row,Structure (SMILES),% of control remaining
1,c1cncc(COc2nc3ccccc3nc2N2CCCC2)c1 [CBK115762],87.9231
2,Cn1cc(-c2nc(C(=O)NC3CCCN(c4ncccn4)C3)cs2)cn1 (stereo not drawn) [CBK305629],68.0613
3,COc1cc2nc3c4ccccc4n(CC(=O)O)c3nc2cc1OC [CBK263626],96.4008
4,CN(C)CCCNC=C1C(=O)CC(C)(C)CC1=O [CBK262043],97.4332
5,O=C(O)CCC(=O)Nc1ccccc1NC(=O)c1ccc(C(F)(F)F)cc1 [CBK265770],55.164
6,COc1ccccc1C1CCN(C(=O)c2ccc(C(C)(C)C)cc2)CC1 [CBK086469],106.997
7,C=CCC1(CC=C)CCN1C(=O)c1sc2ncn(C)c(=O)c2c1C [CBK282637],128.21
8,O=C(N[C@H]1CO[C@H]2[C@@H]1OC[C@@H]2n1cc(-c2ccccc2)nn1)N1CCOCC1 [CBK289503],114.603
9,CS(=O)(=O)N[C@H]1C[C@H]2C(=O)Nc3ccc(-c4cccs4)cc3C(=O)N2C1 [CBK289359],100.989
10,CC(=O)N/C(=C\c1ccccc1)C(=O)NC(C)C(=O)O (stereo not drawn) [CBK261491],101.58
11,N=C1S/C(=C/c2ccc(-c3ccccc3C(=O)O)o2)C(=O)N1c1nccs1 [CBK077624],99.0808
12,Cc1ccc(CCC2CCN(C(=O)c3ccc(O)nc3)CC2)cc1 [CBK296724],105.146
13,c1ccc(-n2nnnc2SCc2cccc(CSc3nnnn3-c3ccccc3)n2)cc1 [CBK263258],109.702
14,COCC(=O)N1CCc2sccc2C1c1ccc(NCc2ccc(OC)cc2)cc1 (stereo not drawn) [CBK286458],92.0853
15,CNC(=O)CC1CCN(c2cc(C#N)ccc2C(F)(F)F)CC1 [CBK306450],47.1726
16,CC(C)(C)c1cnc(C(=O)NC2CCCN(c3ncccn3)C2)o1 (stereo not drawn) [CBK305777],50.7749
17,CS(=O)(=O)N(CC(=O)Nc1ccc(S(=O)(=O)N2CCCCC2)cc1)c1ccc2c(c1)OCO2 [CBK268189],98.2221
18,Cc1ccc(Oc2cc(-n3nc(C)c(C(N)=O)c3N)ncn2)cc1 [CBK099753],82.9649
19,OCc1ccccc1-c1cncc(NCC2CCOCC2)n1 [CBK037309],105.286
20,CC(C(=O)N1CCC(c2cc3cccnc3[nH]2)CC1)N1CCCC1=O (stereo not drawn) [CBK282705],90.095
21,CCOC(=O)c1c(C)oc2ccc(OCC(=O)c3ccc(Br)cc3)cc12 [CBK263841],98.5491
22,CNC(=O)N1CC(=O)N(Cc2cccc(Cl)c2)C1=O [CBK001918],110.5
23,Cn1c(Sc2ccc(C(=O)O)cc2[N+](=O)[O-])nnc1-c1ccccc1 [CBK265047],109.371
24,Cc1cc(C)c2nc(-c3ccccn3)cc(C(=O)NCc3cccs3)c2c1 [CBK267772],114.761
25,O=S(=O)(NCC(Nc1cccc2ccccc12)c1ccccc1)c1ccc(Cl)cc1 (stereo not drawn) [CBK264087],67.063
26,O=c1[nH]c(=O)c2cc(S(=O)(=O)Nc3ccc(Oc4cccnc4)cc3)ccc2[nH]1 [CBK286386],95.7565

row,Structure (SMILES),% of control remaining
1,O=C(CN(Cc1ccccc1)S(=O)(=O)c1cc(Cl)ccc1Cl)Nc1cccc(F)c1 [CBK264664],106.493
2,Cc1ccccc1OCC(=O)Nc1c(C)n[nH]c1C [CBK266046C],96.7999
3,CN(CC(=O)NCc1ccccn1)S(=O)(=O)c1ccc(Br)cc1 [CBK265127],103.897
4,NCc1ccc(-c2nc3ccccc3[nH]2)nc1 [CBK024396C],80.0626
5,CCOC(=O)C1(Cc2ccc(F)cc2F)CCCN(S(=O)(=O)CC)C1 (stereo not drawn) [CBK307655],44.3168
6,N#Cc1ccc(CSc2ncccc2C(=O)O)cc1 [CBK287187],109.689
7,Cc1cccc(C(=O)Nc2ccccc2C(=O)Nc2cccc(C(=O)O)c2C)c1 [CBK265911],76.8104
8,O=C(NC(c1ccccc1)c1ccco1)C1CCN(C(=O)c2cccs2)CC1 (stereo not drawn) [CBK059854],92.861
9,O=C(c1cnc2ccccc2n1)N1CCc2ccccc21 [CBK200267],101.164
10,COc1cc(-c2cncc(NCCCO)n2)cc(OC)c1OC [CBK065271],98.3306
11,Cc1c(C(N)=O)sc(NC(=O)c2cccnc2)c1C#N [CBK268163],88.7562
12,CCOc1cc(OCC)cc(C(=O)N2CCCC3(CC(=O)c4ccc(C)cc4O3)C2)c1 (stereo not drawn) [CBK168067],118.537
13,CN1C(=O)c2cccc3c(S(=O)(=O)N4CCN(S(=O)(=O)c5ccc6c7c(cccc57)C(=O)N6C)CC4)ccc1c23 [CBK269140],100.994
14,O=C(Nc1cc(N2CCNCC2)c2occc2c1)c1cccc(C(F)(F)F)c1 [CBK061762C],69.0804
15,COc1ccc(CC(=O)O)cc1S(=O)(=O)Nc1ccc(SC)cc1 [CBK298315],72.8401
16,OC1CCN(c2ccc(-c3ccccc3)nn2)CC1 [CBK021753],56.361
17,Cc1nc(C(Cc2ccsc2)NC(=O)C(C)(C)N)sc1C (stereo not drawn) [CBK284775],115.028
18,FC(F)(F)c1nc2ccccc2nc1OC1CCOC1 (stereo not drawn) [CBK115806],73.5214
19,CC(=O)N1CCCC[C@H]2[C@H]1C[C@@H](c1ccccc1)N2C(=O)CN1CCCCCC1 [CBK286120],119.416
20,Cn1nccc1CNCc1c(Br)cc(F)c(F)c1N1CCCCC1 [CBK306284],64.6376
21,Cc1ccc(S(=O)(=O)N2CCN(CC(O)COc3ccc4ccccc4c3Cl)CC2)c(C)c1 (stereo not drawn) [CBK266563],101.64
22,Nc1ncc(-c2ccncc2)nc1NCC1CCOCC1 [CBK063816],120.8
23,CN(Cc1cn(-c2ccccc2)nc1-c1ccccc1)C(=O)CCc1n[nH]c(=S)[nH]c1=O [CBK295630],116.815
24,Cc1nn(-c2nc3ccccc3s2)c(O)c1C [CBK270254],108.243
25,Cc1nc(C)c(C(=O)NC2Cc3ccccc3C2)s1 [CBK200357],88.9422
26,COCCNc1nccnc1-c1ccccc1CO [CBK038010],84.4581

row,Structure (SMILES),% of control remaining
1,Fc1ccc(-n2cc(-c3cccnc3)nn2)cc1F [CBK113055],104.59
2,Cn1nc(-c2ccc(Cl)cc2)cc1NC(=O)Cn1nnc(-c2ccc(F)cc2)n1 [CBK295203],98.5589
3,COc1ccc(CNC(=O)NC(=O)C2CCN(CCCc3ccc4c(c3)OCO4)CC2)c(OC)c1 [CBK034875],68.5513
4,Cc1c(CNC(=O)c2cc(-c3ccncc3)nc3ccc(Cl)cc23)cnn1C [CBK288627],113.576
5,CNS(=O)(=O)c1cccc(C(C)NC(=O)N2CCC2)c1 (stereo not drawn) [CBK306257],58.9137
6,N#CCCn1cc(C(=O)N2CCOCC2)c(-c2ccccc2)n1 [CBK306207],62.3731
7,Oc1ccc(Br)cc1/C=N/c1ccc(-c2cc(-c3ccc(/N=C/c4cc(Br)ccc4O)cc3)ncn2)cc1 [CBK261630],95.489
8,C(=C\c1ccccc1)/CSc1nnc(CSc2nc3ccccc3s2)n1-c1ccccc1 [CBK264467],108.61
9,Fc1ccc(Cn2nnc(-c3ccncc3)n2)c(Cl)c1 [CBK288534],121.456
10,Cc1cccc(OCc2nnc(SCC(=O)Nc3cccc4ccccc34)o2)c1C [CBK267153],86.0028
11,Ic1ccc(NCc2cn3ccccc3n2)cc1 [CBK058563],98.9303
12,CC(C)NC(=O)c1sc2ccccc2c1C1CN(Cc2c[nH]nc2C(C)(C)C)CCO1 (stereo not drawn) [CBK285535],112.14
13,Cc1onc(-c2ccccc2)c1C(=O)NNC(=S)NC(=O)c1ccc(Cl)cc1 [CBK267493],80.0065
14,O=C(C1=C(O)C(=O)N(Cc2cccnc2)C1c1cccc(Oc2ccccc2)c1)c1ccc(Cl)cc1 (stereo not drawn) [CBK264698],113.684
15,O=C1CCC(=O)N1CCOc1nccnc1N1CCN(Cc2ccc(Cl)cc2)CC1 [CBK084290],97.3714
16,O=c1[nH]c2ccc(NS(=O)(=O)c3ccc4c(c3)OCCCO4)cc2[nH]1 [CBK295315],90.648
17,CCOc1ccc(S(=O)(=O)N2CCCCC2)cc1-c1nc(=O)c2c([nH]1)c(C(C)(C)C)nn2C [CBK265119],122.61
18,CN1CCN(c2ccc(NC(=O)c3ccc(OCc4ccccc4)cc3)cc2)CC1 [CBK266124],124.603
19,O=c1[nH]c2cc3nn[nH]c3cc2[nH]1 [CBK018154],85.8836
20,Cc1ncccc1C(=O)NC(CC(C)C)c1nnc2n1CCNCC2 (stereo not drawn) [CBK307348],41.6138
21,COc1ccc(C(C)c2cc3c(cc2OCC(=O)O)OCO3)cc1 (stereo not drawn) [CBK200108],79.7855
22,C[C@H](c1ccccc1)n1c(=O)[nH]c2ncc(-c3cccc(C(=O)NCCN(C)C)c3)nc21 [CBK064204],104.185
23,C(=N\c1ccc(-c2nc3ccc(/N=C/c4ccncc4)cc3[nH]2)cc1)/c1ccncc1 [CBK261681],84.2748
24,Cc1ccc(NC(=O)Cn2nc(C)c([N+](=O)[O-])c2C)cc1Cl [CBK268336],104.257
25,O=C(O)c1cc(NC(=O)c2cccc(Oc3ccc([N+](=O)[O-])cc3)c2)cc(C(=O)O)c1 [CBK263528],105.293
26,CC(=O)Nc1ccc(Oc2c(F)c(F)c(/C=C/CN3CCOCC3)c(F)c2F)cc1 [CBK269302C],93.8021
